Several values for one entry are separate records, joined by “and”; a condition that tells them apart may be missing. Equal values may be shown once. Out of some 410,000 compounds screened, about 6,400 (1.6%) were called active. Inconclusive means that the source gave no clear call. Such entries were picked first, then a sample of the others. Calls come from the whole dose curve; as a rule, active = well fitted inhibition curve with a large enough effect; inconclusive = small, poorly fitted or top-dose-only effect; inactive = no such curve, though single readings can be large or run the other way. A potency beside an inconclusive call is a rough fit, not a confirmed value.
Target: Glucagon-like peptide 1 receptor (Homo sapiens) (UniProt P43220)
Assay: qHTS of GLP-1 Receptor Inverse Agonists (Inhibition Mode); note: nearly all actives have a fitted effect of over 55% in size
Conditions: HEK293 GLP-1R CRE-luciferase, luminescence, 24 h, GLP-1R form is constitutively active; activity change, negative = inhibition: at 38.3 µM (top of the series) unless noted
Method in brief: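 Stable HEK293 clone (constitutively active GLP-1R + cAMP-response luciferase); 200 cells/uL plated, 12 h pre-culture, compound 24 hr, 37 deg C/5% CO2; detection reagent 12 min RT; luminescence.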
% is set by controls: 0 for no effect and ±100 for the full control effect; potency is the fitted concentration of half-maximal effect; tags give direction and shape of the fitted curve.

Chain of UniProt P43220 (P43220 whole entry, looked up): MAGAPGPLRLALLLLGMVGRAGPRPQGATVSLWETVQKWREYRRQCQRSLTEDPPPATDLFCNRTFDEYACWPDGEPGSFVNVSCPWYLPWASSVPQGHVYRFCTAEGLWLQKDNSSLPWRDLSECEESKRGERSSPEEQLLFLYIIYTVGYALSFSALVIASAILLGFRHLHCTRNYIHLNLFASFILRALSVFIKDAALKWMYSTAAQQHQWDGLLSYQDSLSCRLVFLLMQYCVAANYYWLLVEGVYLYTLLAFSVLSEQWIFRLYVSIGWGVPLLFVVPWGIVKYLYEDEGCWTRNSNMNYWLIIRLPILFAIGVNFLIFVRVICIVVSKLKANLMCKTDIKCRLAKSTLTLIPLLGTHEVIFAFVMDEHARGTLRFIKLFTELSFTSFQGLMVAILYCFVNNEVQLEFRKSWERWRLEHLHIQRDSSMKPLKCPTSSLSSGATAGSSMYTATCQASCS

Potency, inconclusive:
CCOc1ccc(-n2c(-c3ccc(Br)cc3)c[n+]3c2CCCCC3)cc1 7.08 µM [inhibitor, partial curve, poor fit], CCC(C)NC(=O)c1cc(-c2ccc3c(c2)OCO3)on1 (stereo unspecified) 12.6 µM [inhibitor, single point], Cc1ccccc1NC(=S)N(CCCN1CCC(C)CC1)Cc1ccco1 35.5 µM [inhibitor, partial curve, poor fit], CSc1ccc(Cn2c(C)c(C(=O)NCc3cccc(C)c3)sc2=O)cc1 22.4 µM [inhibitor, partial curve, poor fit], COc1cc(/C=c2\s/c(=C\C(=O)C(C)(C)C)[nH]c2=O)cc(OC)c1OC 10 µM [inhibitor, partial curve], CCOC(=O)c1cc(OC)c2cccc(CN3CCC(C)(C(=O)NCCOC)C3)c2c1 (stereo unspecified) 8.91 µM [inhibitor, partial curve, poor fit], CCN1CCN(c2ccc(NC(=O)COc3ccc([N+](=O)[O-])cc3)cc2)CC1 8.91 µM [inhibitor, partial curve, poor fit], CCOc1ccc(Cl)cc1-c1cc(C(=O)NCc2cc(C(F)(F)F)cc(C(F)(F)F)c2)[nH]n1 28.2 µM [inhibitor, single point], CN1CCC(N(C)C(=O)c2cccc(S(=O)(=O)N3CCc4ccccc43)c2)CC1 28.2 µM [inhibitor, single point], C[C@@H](C(=O)NCc1c(F)cccc1Cl)N1C(=O)N2CCc3c([nH]c4ccccc34)[C@@]2(C)C1=O 28.2 µM [inhibitor, single point], CCN(c1ccccc1)S(=O)(=O)c1ccc(Cl)c(C(=O)Nc2ccncc2)c1 12.6 µM [inhibitor, partial curve, poor fit], O=C(Cn1nnc2c(cnn2-c2ccc(F)cc2)c1=O)OC1CCCCC1 22.4 µM [inhibitor, single point], Cc1ccc(S(=O)(=O)NC(C)C(c2cccs2)N2CCN(c3ccccc3)CC2)cc1 (stereo unspecified) 10 µM [inhibitor, partial curve, poor fit], C/C(=N\Nc1ccc(F)cc1F)c1ccccc1O 7.08 µM [inhibitor, partial curve], CCCn1c(NCc2cccs2)nc2ccccc21 31.6 µM [inhibitor, partial curve, poor fit], COc1ccc(Cl)cc1NC(=O)CN1CCN(S(=O)(=O)N2CCC(C)CC2)CC1 31.6 µM [inhibitor, partial curve, poor fit], CCc1nc(SC)ncc1C(=O)N1CCN(c2cc(C)ccc2C)CC1 10 µM [inhibitor, partial curve], COc1ccccc1CC(=O)N(Cc1ccccc1)c1cccc(C)c1 11.2 µM [inhibitor, partial curve], Cc1cc(C)cc(Oc2coc3cc(OC(=O)c4cccs4)ccc3c2=O)c1 22.4 µM [inhibitor, single point], CCCCOC(=O)c1cccc(NC(=O)/C=C/c2ccccc2Cl)c1 8.91 µM [inhibitor, partial curve, poor fit], Cc1cccc(NC(=O)CN(C)CC(=O)NC(c2ccccc2)c2ccccc2)c1C 5.01 µM [inhibitor, partial curve], Cc1cnc(C(=O)NCC(c2ccccc2)c2ccccc2)cn1 11.2 µM [inhibitor, partial curve, poor fit], O=C(Cn1c(SCC(=O)Nc2ccc(F)cc2)nc2ccccc21)NCc1ccccc1Cl 10 µM [inhibitor, partial curve, poor fit], COc1ccc(-c2csc(NC(=O)Cc3ccccc3F)n2)cc1OC 28.2 µM [inhibitor, single point], Cc1ccccc1C(=O)NCCCNC(=O)c1ccco1 28.2 µM [inhibitor, single point], O=C(O)C1=CC[C@@H](c2ccc(Cl)cc2)N(S(=O)(=O)c2ccc(Cl)cc2)[C@H]1c1cccc(Cl)c1 10 µM [inhibitor, partial curve], CCOC(=O)C1=CCN(S(=O)(=O)c2ccccc2C)C1c1ccc(Cl)cc1 (stereo unspecified) 28.2 µM [inhibitor, single point], CN1c2ccccc2C(C)(C)C12C=Nc1c(cc(N3CCOCC3)c3ccccc13)O2 (stereo unspecified) 28.2 µM [inhibitor, single point], COc1ccccc1NC(=O)C(Cc1ccccc1)NS(=O)(=O)c1cccc2nsnc12 (stereo unspecified) 11.2 µM [inhibitor, single point], N=c1c2c(-c3ccccc3)c(-c3ccccc3)oc2ncn1CCCN1CCOCC1 10 µM [inhibitor, partial curve, poor fit], COc1cc(C(=O)N(Cc2cccnc2)c2nc3cc(C)c(C)cc3s2)cc(OC)c1OC 1 µM [inhibitor, full curve], Cc1ccsc1CN(C(=O)COc1cccc(C)c1C)C1CCS(=O)(=O)C1 (stereo unspecified) 3.55 µM [inhibitor, partial curve, poor fit], Cc1ccc(C)c(C(O)c2ncc(-c3ccc(C(F)(F)F)cc3)[nH]2)c1 (stereo unspecified) 12.6 µM [inhibitor, single point], CCN(c1ccccc1)c1ncnc2c1cnn2-c1ccccc1 3.98 µM [inhibitor, full curve], CC12COC3(C(=O)NCCc4ccccc4)CC1CCC32C (stereo unspecified) 31.6 µM [inhibitor, single point], CCOC(=O)c1c(-c2ccccc2)csc1NC(=O)CSc1nc(C)cc(C)n1 28.2 µM [inhibitor, single point], NC(=O)CC(NC(=O)Cc1ccc(Br)cc1)c1ccc(N2CCN(c3ccccn3)CC2)c([N+](=O)[O-])c1 (stereo unspecified) 10 µM [inhibitor, single point], CN(C)c1ccc(CC(=O)N2CCCC(c3cc(C(=O)Nc4ccc(F)c(Cl)c4)no3)C2)cc1 (stereo unspecified) 8.91 µM [inhibitor, partial curve, poor fit], CS(=O)(=O)c1ccc(-c2sc3ccccc3c2C#CCCO)cc1 4.47 µM [inhibitor, full curve], O=C(NCCc1ccc(Cl)cc1Cl)c1cccnc1 7.94 µM [inhibitor, single point], CCCCC(c1nnnn1CS(=O)(=O)c1ccc(C)cc1)N1CCN(c2ccccc2)CC1 (stereo unspecified) 10 µM [inhibitor, partial curve, poor fit], Cc1ccc(F)cc1NC(=S)NCCc1ccccc1 10 µM [inhibitor, single point], CCCCn1nnnc1C(c1ccccc1)N1CCN(c2ccc(C)cc2)CC1 (stereo unspecified) 28.2 µM [inhibitor, single point], CC1CCCN(C(=O)C2COc3ccccc3O2)C1 (stereo unspecified) 28.2 µM [inhibitor, single point], O=C(NC(c1ccc(-c2ccccc2)cc1)c1cnccn1)C1CCN(Cc2ccc3c(c2)OCO3)CC1 (stereo unspecified) 28.2 µM [inhibitor, single point], COc1ccc(S(=O)(=O)N(Cc2nc(-c3ccc(Cl)cc3)no2)C2CCCCC2)cc1 12.6 µM [inhibitor, partial curve, poor fit], CC(C)(C)[C@H]1C=C(C(=O)Nc2ccccc2)O[C@@H](OCc2ccc(CO)cc2)C1 14.1 µM [inhibitor, single point], O=C(CCCOc1ccccc1)NC1CCCc2ccccc21 (stereo unspecified) 25.1 µM [inhibitor, single point], Cc1ccc(NC(=O)CSc2ccc(-c3ccccn3)nn2)cc1F 11.2 µM [inhibitor, single point] and 10 µM [inhibitor, single point]

Potency, active:
COc1ccc(C(=O)C2CCCN(Cc3cc(C)c(O)c(C)c3)C2)c(OC)c1 (stereo unspecified) 4.47 µM, Clc1ccc(-c2cc(-c3ccccn3)on2)c(Cl)c1 5.62 µM

Activity change, negative = inhibition, inactive:
COc1ccc(CCNCc2ccc3c(c2)n(C)c(=O)n3C)cc1OC -23.3%, COc1ccc2sc(-c3ccc(N(C)C)cc3)c(C#CC(C)(C)O)c2c1 1.12%, COc1cc2c(cc1NC(=O)C(C)N1CCN(S(=O)(=O)c3ccc(C)c(C)c3)CC1)oc1ccccc12 (stereo unspecified) 44.3%, CCCCNC(=O)C1(C)CCCCN1C(=O)c1cc(C)n(C(C)(C)C)n1 (stereo unspecified) 12.7%, CN1C(=O)C(C)(C)c2cc(S(=O)(=O)N3CCCC3C(=O)Nc3ccc(F)cc3)ccc21 (stereo unspecified) 3.52%, CCOC(=O)COc1ccc(F)cc1C(=O)c1ccn2nc(-c3ccc(C)cc3)cc2n1 18.6%, CCOc1ccc(NC(=O)CN(C)C(=O)CCNC(=O)c2ccc(Br)cc2)cc1OCC 13.6%, Cc1ccc(Cn2c(=O)n(-c3cc(C)cc(C)c3)c(=O)c3oc4ccccc4c32)cc1 1.68%, O=C(CCCOc1ccccc1)Nc1cccc(S(=O)(=O)N2CCOCC2)c1 -26.5%, O=C(c1ccccc1Br)N1CCC(c2nc3ccccc3o2)CC1 -11.2%

Reference: PubChem BioAssay AID624417 (National Center for Advancing Translational Sciences (NCATS), 2012)
